This passage reports Raji Cell IC50 (nM); GFP-positive reporter cells and 721.221-HLA-G IC50 (nM); GFP-positive reporter cells results from patent US20240025997A1.

Assay in all cases: cell-based or functional assay
In experiment [1] the target is cyno ILT2 chimeric reporter receptor (cyno ILT2 extracellular domain fused to PILRbeta transmembrane/intracellular domain) (cynomolgus monkey).
In experiment [2] the target is human ILT2 chimeric reporter receptor (ILT2 extracellular domain fused to PILRbeta transmembrane/intracellular domain) (human), Q8NHL6.
Experiment [3] concerns the target human ILT4 chimeric reporter receptor (ILT4 extracellular domain fused to PILRbeta transmembrane/intracellular domain) (human), Q8N423.

human ILT2 chimeric reporter receptor (ILT2 extracellular domain fused to PILRbeta transmembrane/intracellular domain) (human), Q8NHL6, sequence (Q8NHL6 24-461 limits assumed, change not shown): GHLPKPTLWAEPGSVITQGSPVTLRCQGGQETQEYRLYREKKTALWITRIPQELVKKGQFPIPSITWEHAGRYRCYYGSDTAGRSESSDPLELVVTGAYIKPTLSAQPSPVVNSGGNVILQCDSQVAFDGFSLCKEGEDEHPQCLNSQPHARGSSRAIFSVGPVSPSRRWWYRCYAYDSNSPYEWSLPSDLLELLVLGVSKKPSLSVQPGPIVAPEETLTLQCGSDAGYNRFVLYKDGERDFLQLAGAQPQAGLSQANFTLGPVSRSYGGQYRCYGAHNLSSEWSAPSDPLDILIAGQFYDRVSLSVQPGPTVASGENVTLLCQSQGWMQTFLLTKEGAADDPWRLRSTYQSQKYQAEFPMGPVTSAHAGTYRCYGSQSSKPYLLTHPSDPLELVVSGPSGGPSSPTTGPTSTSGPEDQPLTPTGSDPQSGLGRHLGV
human ILT4 chimeric reporter receptor (ILT4 extracellular domain fused to PILRbeta transmembrane/intracellular domain) (human), Q8N423, sequence (Q8N423 other isoform, or with tags, fused parts or gaps mutant limits assumed): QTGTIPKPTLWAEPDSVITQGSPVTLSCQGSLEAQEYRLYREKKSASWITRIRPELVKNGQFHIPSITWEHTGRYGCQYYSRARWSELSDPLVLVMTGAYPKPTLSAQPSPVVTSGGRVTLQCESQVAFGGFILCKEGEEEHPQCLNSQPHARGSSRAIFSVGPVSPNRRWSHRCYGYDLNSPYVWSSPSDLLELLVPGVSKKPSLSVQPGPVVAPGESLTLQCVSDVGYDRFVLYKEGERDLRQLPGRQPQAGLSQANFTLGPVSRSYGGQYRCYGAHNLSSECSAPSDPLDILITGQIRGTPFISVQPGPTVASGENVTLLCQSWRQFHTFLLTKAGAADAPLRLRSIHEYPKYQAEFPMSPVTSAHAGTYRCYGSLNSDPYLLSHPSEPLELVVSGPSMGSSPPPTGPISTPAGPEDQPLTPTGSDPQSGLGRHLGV

B1: humanized anti-ILT2/ILT4 antibody Hz73D1.v1 (antibody, human IgG1, kappa)
heavy: QVQLVQSGAEVKKPGASVKVSCKASGYTFTDYYINWVRQAPGQGLEWMGNVNPNDGGTTYNQKFKGRVTMTTDTSTSTAYMELRSLRSDDTAVYYCARREIYFYGTIYYYAMDYWGQGTLVTVSSASTKGPSVFPLAPSSKSTSGGTAALGCLVKDYFPEPVTVSWNSGALTSGVHTFPAVLQSSGLYSLSSVVTVPSSSLGTQTYICNVNHKPSNTKVDKKV[human IgG1 Fc with changes omitted here]
light: DIQLTQSPSFLSASVGDRVTITCRASESVDYYGNSFMYWYQQKPGKAPKLLIYFASNLESGVPSRFSGSGSGTEFTLTISSLQPEDFATYYCQQNNEDPWTFGGGTKVEIKRTVAAPSVFIFPPSDEQLKSGTASVVCLLNNFYPREAKVQWKVDNALQSGNSQESVTEQDSKDSTYSLSSTLTLSKADYEKHKVYACEVTHQGLSSPVTKSFNRGEC
In the case of B1, the values for the Raji Cell IC50 (nM); GFP-positive reporter cells in experiment [1], in experiment [2] and in experiment [3] were 0.094 nM, 0.25 nM and 0.066 nM, respectively. In addition, the 721.221-HLA-G IC50 (nM); GFP-positive reporter cells in experiment [2] amounted to 0.23 nM; in experiment [3], 0.26 nM.
